± gives the standard deviation of the averaged measurements. This is one part of the list.
Test system: PfAP2-G AP2 domain (GST-tagged)
Experiment: gcPBM binding intensity (ln(normalized median fluorescence intensity)); higher = stronger DNA binding
Procedure, shortened: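 Each value is the highest Masliner-normalised natural-log median intensity across replicate spots of either orientation of a probe. The probes were primer-extended double-stranded 36-bp intergenic genomic sequences on an Agilent 4 × 180k array, alongside negative controls, exposed for 1 h to GST-tagged P. falciparum DNA-binding domains expressed in E. coli. Bound protein was picked up with Alexa488 anti-GST antibody and scanned at 488 nm.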

Row | Sequence | gcPBM binding intensity (ln)
1 | CATATAAAATAATTCACACAAATATACAAATACCCA [CACACA_site5340] | 10.2 ± 0.14
2 | TTTTTCAGAAAAGAAACACACATATATATATTTATA [CACACA_site2372] | 9.915 ± 0.007
3 | AAAAAAAATTTCTTCTGTACGCATAAATTTTTATTA [XGTACX_site8721] | 11.6 ± 1
4 | TATTTAATTTTTAAATGTACATATAAAATAATATAT [XGTACX_site2422] | 11.2 ± 0.89
5 | ATATAACATAGACACACACACATATAAATATATTAT [CACACA_site7865] | 10.2 ± 0.24
6 | ATATAAGATTTAAGAAGTACAATTATACAGTAGATC [XGTACX_site7501] | 11.4 ± 0.88
7 | CTTTATAAAATAAGAGTGCGTTATATTGAATTGTAT [GTGCAC_site9390] | 10.05 ± 0.064
8 | TATATTTGCAGTAATAATAATTATTATAAAAGATAA [XGTACX_negctrl_site547] | 9.95 ± 0.18
9 | TATGAATGGTTAAGTACACACATATTAAGATATGTA [CACACA_site5852] | 11.3 ± 0.93
10 | TTATTTATTTTAAATTCACACATCGTGCTATTATAT [CACACA_site5003] | 9.695 ± 0.007
11 | TCATATATTTATGTATGTACATATATATATAGATTA [XGTACX_site380] | 11.1 ± 0.61
12 | ACGTTTTATAATTAATGTACAAATATTAAAATTGCA [XGTACX_site7869] | 10.8 ± 0.54
13 | GAATAAATTAAAAATGCACACTTTGATGGGTACATT [CACACA_site5220] | 11.3 ± 0.88
14 | AATTAGACATAATATACACACATATATTATAGATAT [CACACA_site7297] | 9.815 ± 0.007
15 | TATATTATTATAATTTGTACATATCTAATTATATAT [XGTACX_site5342] | 10.8 ± 0.52
16 | TAAAGATATTATTTTTGTACATATTGATATAATGAA [XGTACX_site6571] | 10.9 ± 0.53
17 | TTTTTATAACGTAATAAATAAAACGTCTATACTATA [XGTACX_negctrl_site176] | 10 ± 0.28
18 | AAAAATATAATATAATGTACACAAAAAAAAAAATTC [XGTACX_site3657] | 11.4 ± 0.79
19 | TAAATAAATCTGTGCTTGCACTTTTTTTGTTATTTT | 9.94 ± 0.21
20 | AAAATAAAAAAAATAAATAAAAAAAATAATAATAAA [CACACA_negctrl_site563] | 9.455 ± 0.035
21 | TCATAAATATAAAGTGTGCACTTGAATAATATGTAT | 10.15 ± 0.099
22 | ATTTAACATATAAAATGTACATATATATATATATTT [XGTACX_site2525] | 10.8 ± 0.54
23 | GTACCATCAAAATAAATATATATATATATATATTTT [GTGCAC_negctrl_site646] | 9.86 ± 0.35

Row | Sequence | gcPBM binding intensity (ln)
24 | ATATAAACATATAATAGTACACTTCGATAATTTTAT [XGTACX_site3321] | 11.2 ± 0.61
25 | AGGAAAATTTTATTTGCACACATTATTACGTCTAAA [CACACA_site2337] | 10.3 ± 0.23
26 | CATATATATATTGGAAGTACATATTTAATATTCATT [XGTACX_site3545] | 11.4 ± 0.7
27 | TCTTTTTTCATATTTTCACACATGTCTTTATATTTA [CACACA_site6025] | 10.1 ± 0.042
28 | TTTGTGTTGTATTTTTGTACATAAAATAAACTTAAA [XGTACX_site4637] | 11 ± 0.64
29 | TTTCTTTTTTCTTCAGTGCATTAAAATTAACAAAAG | 10.2 ± 0.33
30 | GAGCCCAAAAAATTAGGTACGTATAAAGAGGTATTT [XGTACX_site5348] | 11.2 ± 0.71
31 | ATAAAGTATATTATATGTACATATATATATTATATA [XGTACX_site1345] | 11.1 ± 0.52
32 | AGATGAGAAATATATACACACAATAATACCTATTTA [CACACA_site876] | 9.93 ± 0.16
33 | ACATGTAATATAATGTGTACATATACAAAGGTATAT [XGTACX_site4145] | 11.5 ± 0.87
34 | GTTAAGTGGATATATACACACATATGCAATACATGA [CACACA_site7427] | 10.07 ± 0.099
35 | TATACTACCCAGAGCTGTACAAAATAATAATAAGTT [XGTACX_site1045] | 10.7 ± 0.47
36 | ATGGTTATATTTGAAGTGCAAAAAAAAATATATGTA | 10.3 ± 0.29
37 | ATGTGGATTTTATAATGTACATATGATATTATTTTG [XGTACX_site7930] | 11 ± 0.6
38 | CAATTCAATATATATACACACACACTATTAATAATT [CACACA_site9256] | 10.1 ± 0.2
39 | TATATTTTTATGTGTGTGCACAAAATAACAAAATAT [GTGCAC_site9596] | 10.7 ± 0.5
40 | ATTATTTTTTTTGAAGTGCAATATTATTTTTAATCA | 9.99 ± 0.18
41 | ATAAACAGATAAAAGGGTACACACATATATACATGT [XGTACX_site452] | 11.4 ± 0.84
42 | TTATATATATATTGTTCACACATAATATAAATATTT [CACACA_site5835] | 9.86 ± 0.014
43 | TTAAATAAAATAAAAACATGCACACTTTATTTTTTT [TGCATGCA_site719] | 9.985 ± 0.021
44 | TTTTAATAAATCATTTTCCTAATATTTATATTTGCT [TGCATGCA_negctrl_site232] | 9.53 ± 0.14
45 | TTTTTCATTTAGCTTTTACACACTATATATTATTGA [CACACA_site7888] | 9.905 ± 0.064
46 | ATTCCTTTATTATCACGTACTTATAAAATATAGTAT [XGTACX_site7498] | 11.2 ± 0.6

Row | Sequence | gcPBM binding intensity (ln)
47 | AATAAAAAAAATTTCTGTACATATATTTATTATATA [XGTACX_site1883] | 11.1 ± 0.74
48 | CTCTTTTCTTATAATACACACAGTAATATTTATATA [CACACA_site6824] | 10.4 ± 0.39
49 | TACTTTTTTATTTGGTGTACAAATAAAATCATAATG [XGTACX_site1802] | 11.5 ± 0.86
50 | ATATATTTTGATTGCACACAGAATTTAAATCATGAT [CACACA_site2343] | 10.1 ± 0.2
51 | GAAGATATATAATAATTCATAGTTTTTTAATTTAAA [TGCATGCA_negctrl_site295] | 9.45 ± 0.18
52 | CAAACCCACCAACACACACACACAAAAATGATTAAA [CACACA_site2432] | 10.2 ± 0.35
53 | AATAAAAAGGAACACACACACACACCGATATATATA [CACACA_site5895] | 10.1 ± 0.15
54 | TACATACACAGACACACACACATATATATATATATA [CACACA_site3557] | 10.2 ± 0.38
55 | AATATATACATATATACACACACATATATTATATAT [CACACA_site7980] | 9.895 ± 0.007
56 | TAAATATAAGTGTACATACACACTTTACAATCTCAT [CACACA_site3006] | 11.3 ± 0.72
57 | TATTGTAGTCATGCACGTACAAAAGGAAAGTTAAAA [XGTACX_site4446] | 11.3 ± 0.75
58 | AAATAAAATATTACATGTACATGTTCATAAAAAAAA [XGTACX_site1067] | 11.2 ± 0.65
59 | ATAAATTAATGGAGAAATCTTATGAATTTATTTTAA [CACACA_negctrl_site1068] | 9.37 ± 0.27
60 | TTATTTTTATATTTCACACACATATACTTTTACATA [CACACA_site4097] | 10.2 ± 0.13
61 | ATTTAAATTTAAAAAACACACATAATATGATATATA [CACACA_site1973] | 9.965 ± 0.035
62 | AAAGAAGAAAAATATAGTACAGGGCACATGTCCTGT [XGTACX_site6293] | 11.1 ± 0.74
63 | AAAAAAAAAAAAATTGCATGTAAATGAAATAATAAA [TGCATGCA_site116] | 9.6 ± 0.16
64 | CCTATAAAACCATATACACACATATATATAAAAAAA [CACACA_site4013] | 10.1 ± 0.23
65 | TGTTTCTAAAAATTTACACACAAAATATTTCTACAT [CACACA_site4098] | 9.975 ± 0.078
66 | TTATACGATAATATGACACACAATACAAAAATGTAA [CACACA_site1918] | 10.2 ± 0.14
67 | TAATTTCTTATGTATTGTACAAATAATATATTATAT [XGTACX_site1037] | 10.9 ± 0.64
68 | TTTTCTGTGTTTTTGGGTACACACAAATAGCTTGTA [XGTACX_site8553] | 11.6 ± 1.1
69 | TGGGTATATATAAAAGGTACACAAAATGAAGATATA [XGTACX_site4994] | 11.3 ± 0.8

Row | Sequence | gcPBM binding intensity (ln)
70 | ATATGTGTTAAAAATGCACACAAAAAAATATACATA [CACACA_site7988] | 10.2 ± 0.16
71 | CAATTTTACTCATAAACACACATATATATGTTATTA [CACACA_site3152] | 9.975 ± 0.035
72 | AATAATAACAAATGAACACACATATAGATGAGCAAA [CACACA_site7076] | 9.93 ± 0.18
73 | CTTAAGTAAAATTAAAGTACATGGACAAAAAATATA [XGTACX_site7900] | 11.4 ± 0.85
74 | TATCTCATGCGCACAAAAATATATGCAAAGAGTATA [TGCATGCA_negctrl_site201] | 10.3 ± 0.4
75 | ATGGTTTAATTATATACACACTCGAAAATAACGACA [CACACA_site3258] | 10.2 ± 0.25
76 | TGATATTATATTGTGATGCACTTTAAAAATATAAAG [GTGCAC_site9509] | 10.2 ± 0.17
77 | CTTATTTTATTCGAATGTACATAATTGTTAGACATT [XGTACX_site8583] | 11 ± 0.75
78 | TTTTACAAATGTTTTACACACACATAATTGTATCAA [CACACA_site4166] | 10.1 ± 0.13
79 | AAAAAAAGGATGTACGTATCATAATTTTATTTTATA [CACACA_negctrl_site1543] | 11.5 ± 0.93
80 | AACATAATTAAAAATTGTACAGAATTTCAATCGAAA [XGTACX_site7542] | 10.8 ± 0.56
81 | TTTTTTTTTTTTAATACACACATATATATATTTATT [CACACA_site3994] | 9.82 ± 0.3
82 | GTAAAAAAAAAAAAATGTACACATATATATAATATA [XGTACX_site159] | 11.4 ± 0.82
83 | ATAAAAATGTATATATGTACATATATATATATATAT [XGTACX_site1505] | 11.4 ± 0.6
84 | CTTTTTAATTAATACACACACACACCCATATATATA [CACACA_site2292] | 10.3 ± 0.35
85 | ATCACTTGAGAATAATTACATTAATATATATTTATG [TGCATGCA_negctrl_site581] | 9.67 ± 0.13
86 | TGAAATTTTATTAATGTGCACATATATTTATTGTTC | 10.4 ± 0.31
87 | GGGAAAGAACCATATACATGCATATTTACCGTTAAA [TGCATGCA_site519] | 10 ± 0.28
88 | CATATACATACACATACACACATACAGACATACACA [CACACA_site6919] | 10.2 ± 0.17
89 | TATAAAATTACATTTTGTCATTTATTTTTTCCCACT [TGCATGCA_negctrl_site110] | 9.71 ± 0.042
90 | TGTTTAAGTGTTTTTAGTACTTATAAAAATATTATC [XGTACX_site7379] | 11.1 ± 0.63

Source: the supplement of paper PMC11417369
